Source: US10364280B2, “Polypeptide” (AFFIBODY AB, priority 2015, dated 2019)

Assays:
[1] = target: T1, hPD-L1 (Homo sapiens, UniProt Q9NZQ7); assay: Biacore kinetic analysis on immobilized hPD-L1; format: binding; settings: His6-tagged Z variants; approximate, based on 5 and 50 nM injected; 1:1 interaction model
T1 construct: purchased R&D Systems 156-B7-100
Procedure: (§1) Kinetic constants (ka and kd) and affinities (KD) for hPD-L1 were determined for the His6-tagged Z variants Z13166 (SEQ ID NO:1), Z13178 (SEQ ID NO:2), Z13359 (SEQ ID NO:3) and Z13398 (SEQ ID NO:4) using a Biacore 2000 instrument (GE Healthcare). All four Z variants were also tested for binding against the sequence-related proteins hPD-L2, hB7-H3, hB7-H4. Z13166 and Z13398 were further analyzed against mPD-L1 (mouse PD-L1 Fc Chimera, R&D Systems, cat. no. 1019-B7) and Z13178 and Z13359 were analyzed against rhesus monkey PD-L1 (RhPD-L1; rhesus PD-L1/Fc Chimera, Sino Biological Inc., cat. no. 90251-C02H)
(§2) hPD-L1, hPD-L2, hB7-H3, hB7-H4, mPD-L1 and RhPD-L1 were immobilized in separate flow cells on the carboxylated dextran layer of different CM5 chip surfaces (GE Healthcare, cat. no. BR100012). The immobilization was performed using amine coupling chemistry according to the manufacturers protocol and using HBS-EP (0.01 M HEPES pH 7.4, 0.15 M NaCl, 3 mM EDTA, 0.005% v/v Surfactant P20, GE Healthcare, cat. no. BR100188) as running buffer. In a first set of experiments, in which Z13166 and Z13398 were analyzed, the ligand immobilization levels on the surfaces were 468-894 RU for hPD-L1, 482 RU for mPD-L1, 537-742 RU for hPD-L2, 383 RU for hB7-H3, and 538-659 RU for hB7-H4. One flow cell surface on each chip was activated and deactivated for use as blank during analyte injections. In the kinetic experiment, HBS-EP was used as running buffer and the flow rate was 50 μl/min. The analytes, i.e. the Z variants, were each diluted in HBS-EP buffer within a concentration range of 1000 to 0.01 nM and injected for 5 min, followed by dissociation in running buffer for 15-25 min. After dissociation, the surfaces were regenerated with one or two injections of 0.1% SDS. Kinetic constants were calculated from the sensorgrams using the Langmuir 1:1 model of BiaEvaluation software 4.1 (GE Healthcare). In a second set of experiments, in which Z13178 and Z13359 were analyzed, the ligand immobilization levels on the surfaces were 1030 RU for hPD-L1, 1060 RU for RhPD-L1, 1070 RU for hPD-L2, 1090 RU for hB7-H3, and 770 RU for hB7-H4. Analyses were performed essentially as described above for the first set of experiments, but using a flow rate of 30 μl/min and the Z variants were injected at concentrations of 5 and 50 nM over chips immobilized with hPD-L1 and RhPD-L1, and at a concentration of 500 nM over immobilized hPD-L2, hB7-H3 and hB7-H4,

[2] = target: T2, RhPD-L1 (Macaca mulatta, UniProt H9Z833); assay: Biacore kinetic analysis on immobilized RhPD-L1; format: binding, rhesus monkey; settings: His6-tagged Z variants
T2 construct: purchased Sino Biological Inc. 90251-C02H
T2 sequence (H9Z833 19-239 limits assumed): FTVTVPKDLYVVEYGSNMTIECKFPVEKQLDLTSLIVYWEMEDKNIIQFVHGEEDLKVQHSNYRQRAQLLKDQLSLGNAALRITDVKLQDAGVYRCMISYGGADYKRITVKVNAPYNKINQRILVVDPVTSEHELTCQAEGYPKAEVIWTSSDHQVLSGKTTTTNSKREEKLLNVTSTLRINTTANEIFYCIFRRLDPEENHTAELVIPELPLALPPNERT
Procedure: as §1, §2

[3] = target: T3, hPD-L1 binding to hPD-1 (Homo sapiens, UniProt Q9NZQ7); assay: AlphaLISA blocking assay; settings: His6-tagged Z variants; 10 nM (Z13166, Z13398) or 8 nM (Z13178, Z13359) biotinylated hPD-L1; hPD-1 coated Acceptor beads; read-out: IC50 (M) inhibiting binding of PD-L1 to PD-1
T3 construct: purchased R&D Systems 156-B7-100 (hPD-L1); 1086-PD-050 (hPD-1)
T3 sequence (Q9NZQ7 19-239 limits assumed): as the sequence (H9Z833 19-239 limits assumed) above, with T33A, S34A, N62S, Q68R, R82Q, L173F, A185T, I192T, L215H counted along it
Procedure: The potential of Z variants to inhibit binding of PD-L1 to PD-1 was analyzed by AlphaLISA and recordings in an EnSpire multiplate reader 2300 (Perkin Elmer). hPD-1 (human PD-1 Fc-chimera; R&D Systems, cat. no. 1086-PD-050) was immobilized on AlphaLISA Acceptor beads (Perkin Elmer, cat. no. 6772002) according to the manufacturers recommendations. Stepwise serial dilutions 1:3 of the His-tagged Z variants Z13166 (SEQ ID NO:1) and Z13398 (SEQ ID NO:4) to final concentrations of 250 nM to 12 μM were made in a 384 plate (Perkin Elmer, cat. no. G6005350) and incubated for 1 h with 10 nM biotinylated hPD-L1 in AlphaLISA buffer (Perkin Elmer, cat. no. AL000F). hPD-1-coated Acceptor beads were added to a final concentration of 10 μg/ml and incubated for 1 h. Finally, streptavidin coated Donor beads (Perkin Elmer, cat. no. 6772002) were added to a final concentration of 40 μg/ml and incubated for 30 min. All incubations were performed at RT in the dark. The plate was analyzed in the EnSpire instrument and the IC50 values were calculated using GraphPad Prism 5. AlphaLISA analysis of the Z variants Z13178 (SEQ ID NO:2) and Z13359 (SEQ ID NO:3) was performed essentially as described above but with the following exceptions: Exception 1: stepwise serial dilutions 1:3 of Z variants to final concentrations of 250 nM to 4 μM were made in a 384SW plate (Perkin Elmer, cat. no. 6008350) and incubated for 45 min with 8 nM biotinylated hPD-L1 (R&D Systems) in AlphaLISA buffer (Perkin Elmer, cat. no. AL000F); and Exception 2: hPD-1-coated Acceptor beads were added to a final concentration of 10 μg/ml and incubated for 50 min.

[4] = Circular dichroism (CD) spectroscopy with variable temperature measurement; format: physicochemical; settings: CD at 221 nm, VTM; Z15171-Cys in HEPES/EDTA pH 7.2, 20 to 90° C.; His-tagged Z13178, Z13398 in PBS, to 80° C.
Procedure: The Z variant Z15171-Cys (SEQ ID NO:5), was diluted to 0.5 mg/ml in 20 mM HEPES, 1 mM EDTA, pH 7.2. A CD spectrum at 250-195 nm was obtained at 20° C. In addition, a variable temperature measurement (VTM) was performed to determine the melting temperature (Tm). In the VTM, the absorbance was measured at 221 nm while the temperature was raised from 20 to 90° C., with a temperature slope of 5° C./min. A new CD spectrum was obtained at 20° C. after the heating procedure in order to study the refolding ability of the Z variants. The CD measurements were performed on a Jasco J-810 spectropolarimeter (Jasco Scandinavia AB) using a cell with an optical path length of 1 mm. The His-tagged Z variants Z13178 (SEQ ID NO:2) and Z13398 (SEQ ID NO:4) were analyzed by CD spectroscopy as described above, but with the exceptions that PBS was used as analysis buffer and the temperature was raised to 80° C. in the VTM.

[5] = approximate, based on one concentration, 5 nM

T1 sequence (Q9NZQ7 19-239 limits assumed): as the sequence (H9Z833 19-239 limits assumed) above, with T33A, S34A, N62S, Q68R, R82Q, L173F, A185T, I192T, L215H counted along it

Kd [1]: 540 nM | ka (1/Ms) hPD-L1 [1]: 19 M⁻¹ s⁻¹ | kd (1/s) hPD-L1 [1]: 1e-05 s⁻¹ | binding to RhPD-L1 in Biacore [2]: showed binding | Kd [2, 5]: 22 nM | ka (1/Ms) RhPD-L1 [2, 5]: 110000 M⁻¹ s⁻¹ | kd (1/s) RhPD-L1 [2, 5]: 0.0025 s⁻¹ | IC50 [3]: ~1e-08 M
Substance: Z13178: PD-L1 binding Z variant, 58 amino acid residues, SEQ ID NO:2; tested as ABD fusion or His6-tagged (VDAKYAKERTWAVWEIMDLPNLTAGQRGAFINKLHDDPSQSSELLSEAKKLNDSQAPK; Engineered PD-L1 binding polypeptide)
Tm (° C.) [4]: 52 °C
